Source: PMC10726135
The list shows a part of the results. At the low end of the ranking the order means little. The protein was read in a cell extract, so binding may be indirect.

Target: T1, HNF4alpha2 (COS-7 nuclear extract) (UniProt P41235)
T1 sequence: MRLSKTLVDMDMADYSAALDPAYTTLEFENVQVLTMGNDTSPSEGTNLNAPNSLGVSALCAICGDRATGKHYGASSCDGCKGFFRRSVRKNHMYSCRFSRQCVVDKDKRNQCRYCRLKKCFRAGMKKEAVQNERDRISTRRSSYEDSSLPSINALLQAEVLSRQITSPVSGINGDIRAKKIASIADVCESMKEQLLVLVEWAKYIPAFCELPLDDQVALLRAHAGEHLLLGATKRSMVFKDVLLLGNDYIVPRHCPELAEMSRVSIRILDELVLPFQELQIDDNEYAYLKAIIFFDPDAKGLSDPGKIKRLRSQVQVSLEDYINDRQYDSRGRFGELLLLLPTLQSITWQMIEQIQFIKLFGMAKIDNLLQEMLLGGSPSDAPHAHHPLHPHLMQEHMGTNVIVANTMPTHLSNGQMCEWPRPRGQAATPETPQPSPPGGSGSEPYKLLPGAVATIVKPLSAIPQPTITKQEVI
Assay: protein-binding microarray
Settings: COS-7 nuclear extract on double-stranded Agilent 4x180k PBM; binding buffer, salt, pH and temperature not given; high values mean tight binding; double strand, one strand shown; sequences stand for … in …GCCTAGGGAGATTAGAGTATCGGTCGA

| Sequence | binding signal (log2 normalized intensity) |
| --- | --- |
| TTCCACTCTACCGTCCTCCCCCACGACAGA | 5.15 |
| CCATTCTCAGGCAGATGGGCAGCACTGTGA | -1.11 |
| GTAAGCCTGGTATTAATGAGGCAAAGGTCA | 4.94 |
| ATAGCAAAAGTGACCTTTGCTCCAGTTCCC | 7.8 |
| TGGCTCGACAACGATTTGGGAAATGAAGGG | -1.1 |
| GAGAAGCCTGAAATGAGTTTCATTAGACAG | -1.04 |
| GCTCACTGCACCTTGACCTCCTGGGCCCAA | 3.68 |
| CAAAGTCAGGTCAGTAGCCCAGGGTCACAC | 1.71 |
| GGACTTGATCCATTCTACCCCTGTGGTTGA | 2.25 |
| AAACACACCCTTGGGGCTGATGTGCACAGT | -0.887 |
| ACACGAGCTGTGCGCTTAGTCCATGACGCA | -1.15 |
| AGACTTAGGATCTAGCAAATTTGGGAGGGA | -1.17 |
| GTCAGTCTGATTGGTTGGAGAAAGCAGCCA | 0.0772 |
| TTTAAAATGTTTCAAAGTTTTTCCCCTTGG | 2.21 |
| GTAGGAGCGGGCTTAACTAGGAGCCTGCAC | -1.04 |
| CTTTGAGTCCCAATCCCCCATCTATTTACA | 3.09 |
| CTTGGGGGAGGAGGGCAACCTTTGAACTGG | 5.3 |
| TCCAGAAACCAACCTTTGATCATTCCTGCA | 4.17 |
| ATGGAGGCATCATAAACTCCAACTCAGCCC | -1.01 |
| TCCTAGCCACCATGCTCGGCTGCCTCTCCA | -1.12 |
| GGAAGCTGGGCACAAATTGGAGAGCATCTT | -1.06 |
| CAGCATGTCTTCTGACCTTTGGCAATATCT | 4.37 |
| TGGTAGGGGGGTGTTATCTCTGATGCCCTT | 2.69 |
| TTTTTCACTGCTCACAGGTTGTACTATGAC | 2.34 |
| TCGCTGCCTGCCCCTCTGACCTCTCCTCCT | 3.87 |

| Sequence | binding signal (log2 normalized intensity) |
| --- | --- |
| GGTGGCTTTTGCTGACATGCTCTTGGAATG | 1.02 |
| ACTGGTTTTTCAGATCCCTCTGGTGCTGAT | 0.627 |
| CTCTGCAGACTGGTGCTATGTCCCTGACTG | 0.386 |
| ACAAAGCTCTGCATCCTTCCCTAAGCAGCT | -1.08 |
| TGTTTTTATTTCCCCTTTCTGTTGGAAGCT | 0.983 |
| CCAAGACTCGCGATAACCCTCTGGGGCCGG | -1.06 |
| GCAGCTCTGCGTCTTACTAAATGCAGCCTT | -1.05 |
| ACACGCATGGCCGGCAGCAGCCTTGCCTTT | -1.11 |
| GGACTTGAGGTCTTATCTTTAGGCCAAACA | 1 |
| ACAAAGAAAGCCAAAGTTCACCCTTTCGCC | 1.79 |
| CTGCCCTTTGAAGCATGTGATCTACTCCCT | 1.49 |
| AGTGTGAGTGTCAGAGGCTAAACCTAGCCC | -1.25 |
| ACACTTCCCAAGCATGTTTGGTGACCCGTG | 3.19 |
| AGGTCTCGAGGCCTCTTTATCTCCTCCCCT | 3.36 |
| TTGCCAGTTCCCATTTGCGCTGGTTTTATG | 1.82 |
| TTTAAGGTCACATGCCTAGGTAAGCCCACT | -1.06 |
| AGCTGGTTTGAAGAATGTGGTCTGGTCATG | 1.77 |
| AGCTATTGCGAGGTTCCATGGTGTAATGGT | 2.06 |
| CTTGCAATGAGGCGACATCAAAGCATTTGG | -0.0948 |
| TTGGTAATCCTGCTCCTTCTGAATCTGTTC | 1.46 |
| AGTAGCTAGGAGACAACTTAGAATTTCATT | -1.24 |
| AGGACAGACTTTGGACCTGGCCCTCTGGGT | 4.18 |
| GGCCACCTTTGGCCGAAACTCAGTGATTGG | 1.15 |
| AGGGTCACAAGGATCCCATTCATGTGGGTC | 0.754 |
| AACTCCCCCTGCCCCCAGGTAGAGAGCAAT | 4.21 |

| Sequence | binding signal (log2 normalized intensity) |
| --- | --- |
| CAGCATTCCATTCATTTTAGACATAACAGT | 1.72 |
| TGAAGGGCAGGGTTGGCTGTGGCAATTCCT | -1.29 |
| TCCAAAAAGAATCAGTTACAAGTTAATTTC | -1.05 |
| CCTGATGGGATGAGAGAGCCCCTGTGATAC | 1.53 |
| CTCCCAAATCTTCTTTAAGCTATGTGGTGG | 1.68 |
| CACACAGACTTGGGTTCAAAGAGCACATTC | 3.21 |
| CTGAGCATACAGAACCCATGCTCTTTGGCC | 2.78 |
| CCCCCAGCCTCTCACAGTAGCCCAGGTCCT | 2.24 |
| AGGAGAAGGGCCCATGGGCTTCAGGGTAAA | -1.09 |
| AAAAAACCCTAGAGATGTACACAGTTCAAA | -0.874 |
| CTTCACCTCCCCTAGACTTACTATTATGCC | 1.3 |
| CCTAGCCCCACCAAACTGACAGGTTAGACT | 2.22 |
| AATTGTGAAACTCAGAATCAGGGGATTCTG | -0.838 |
| CAAGGTTCCCAGCTAAATAAATAACTCTAA | -1.17 |
| CTCCAAACATCTTTGGTATGGACTGATATT | 1.5 |
| TAGGGCAGGGGGGAGATGAAATCTGGAGCT | -1.21 |
| GTGGGATCCAACCAGAGGGAAGAGATCATG | -0.919 |
| TGACACACACCTCCAGCCACCCTGAAGGCT | -1.15 |
| CCCCTCTGACCTCTCCTCCTACCTTCTCCC | 2.71 |
| TCTTTGCCCTCTTGGTATCAGCTTTGAGAC | 1.42 |
| CAAACATTTATTTTGTGTGCTAGATACTGG | 1.3 |
| GTCAGGAACAAAGGTCACAGCACTGTTTAT | 3.63 |
| TAATTAACTCCCCCTGCCCCCAGGTAGAGA | 5.67 |
| CCTTTCCCCGCCCCGCGTCCGTGCACCCTT | 4.42 |
| GCCTTGCTGAGGAATTTGGACTTCAGCCCA | 6.11 |

| Sequence | binding signal (log2 normalized intensity) |
| --- | --- |
| GCATCAACTCTATCATACTCAGCTAATCTA | -1.08 |
| ACAGCTGACAAGCAGAACCCAGGGTCACAA | -1.15 |
| AGGTGTAACCTGCTCTCTCATGCCCTTTGC | 4.31 |
| GTTCAGAGGGCATGTTGAGTGGAATATGAG | 1.45 |
| TCCCTCCCCCATTAGAGGCACACTCTATTA | 3.27 |
| CGAGAGAGACCTGTTCTGTTCCCTGGACTC | 2.88 |
| TTTGTTCACTTGTTTATCTGCTGCCCTTCC | 2.78 |
| GAACTCTTCATGGACTCCTCTTATCTTCAG | 1.04 |
| CTAGAAAGAATGAGAAGGGCTAATATTTGC | -0.992 |
| ACTGCCATTGATAATTCAGTTTCATTGCAC | 0.91 |
| TCAGGTTCCCCAGTGAGGATGTGTGCTCGA | 1.59 |
| AGACAGAAAACAAACATTAGCTGCAGATTC | -1.01 |
| GCTTGACCCATTATGGCCACTGTGTGTGTG | 2.14 |
| ATGGGACATTGCATTCCACCCTGGCAGAGG | -1.13 |
| GTACACAGGAATATCAACAGGAGCAAATAT | -1.09 |
| ACTGATTCTCAGGCATCTCTGGGGGTCAGA | 2.8 |
| ATATTCAGACGCATGACCTCAACTCTCAGT | -0.151 |
| TCATTTTGATCTTTGTGTACAAAGCCATCA | 1.2 |
| ACGCCCTGCACCCTACGTAAATGCACGGAA | -0.956 |
| AAATTATTACTCCCACCGTGTGTGCACTTT | 3.33 |
| ATTCCTATCGCCCTTCTGTCAAGTCCAAAG | -0.648 |
| TTGCTCAACCCAAAGCATGTCCAGAATCCT | 0.853 |
| GGCCCTGCAGACTTTGCCTCAGTAAATGCA | -0.96 |
| TGGGAACCGACCTTTGGTTCCTGAACTCAA | 4.29 |
| AAGGCATGGGACCTTTGCCCTTCTTGTTAA | 4.4 |

| Sequence | binding signal (log2 normalized intensity) |
| --- | --- |
| GTTACGAGTGGGAGTTAGGGAAAAGATAAG | -1.13 |
| ACACTTTCTGACCTTTAAGCACCCAGAGCC | 2.1 |
| TAAAGGTCAAAACCACCTATTCTGAAGATT | -1.01 |
| TTCCAGGCTTGTACCTTGACCTTCTCTGTT | 5.58 |
| AGATGTGAACACTGAGGCTCAATGAGGTCA | 1.54 |
| GAGGAGAGTACTGTCTCTTATCAGCCATCT | -1.15 |
| CAAGAGAGGTCACAACAGAAAGCAAGAGCA | -1.05 |
| CCCGGGCACAGGGTTGAGTGGTGACTGAAG | -1.06 |
| GTCCCAGGGCAAAGGTCACCAGCTAAGCTG | 5.83 |
| ACCTCTGGTCATTCAATGTTTGGGAGCCTT | 1.45 |
| TGTCGGTATAAGTTCTACATTCCCAAGGTT | 0.442 |
| CTTCCTTTATTCACTTCTCAAAGGACAGAT | 2.17 |
| AGGAGATATGCACTTGCCCTTTGGTAATCC | 3.23 |
| GACTCTGTCCTGGGCACTGTCCTAGGTGCT | -1 |
| TATTCTTTAACCAGAGTCTACAGGTCAGAC | 1.29 |
| TGCCACAGGTATTTCTGTTGTTGATTTAAC | 1.19 |
| TATCTCAACTGATTTACCTCTGACCACTCT | 0.588 |
| CTCCCCCACGACAGAATTGACTCTTCGTTT | 2.49 |
| TCTTGTAGGTTTTTTTTTTTTTTAACGGTC | 2.91 |
| CTCCAGGAGCAATCATCGCACCTAAGGGCA | -1.18 |
| TTGTACTGCTTCCAAAACATTGTAGAATTA | 0.955 |
| CCGACTCCTGGGTGTGAGATAAGGCCGCTG | -1.1 |
| GTGTCATTGTTATTTACGGTGGGCACCTCA | 0.318 |
| CCGGTTTGTTCCATGCCACAGAATCGCCCC | 2.6 |
| GGAACCAAGAGCAGATTTGTTTGCTCTTTA | 0.323 |

| Sequence | binding signal (log2 normalized intensity) |
| --- | --- |
| GGTTCTCTCTTCTTCCCCTCCTTCAGGTCA | 2.72 |
| AATGACCCTTGCTTGACCCATTATGGCCAC | 1.15 |
| TCCGGGTATGTTCTTAAGATAAGGACTGTT | 1.44 |
| CAAGGTCCCATGCACTGGCCTGGATTTAAA | -1.01 |
| TCCCAGGATAATGGAGAAGATAAGCAGATC | -1.21 |
| GACCAGCTTTTGGAAGGACTTCGAATGGTA | 1.06 |
| AGCTGACCCCAAAACCCCCAAAGGTGAGTA | 3.97 |
| AATGGTGTAGAGGCCAGAGGTCGTGTCTCC | 1.6 |
| TTATCCTTGGGACATTCTCACATTAAAAGA | 1.6 |
| GGAACATCAGACACAGAGATAAGGAGGTAA | -0.87 |
| GCAGAGATTCCTGCTGAGTTATCTCTTGAC | -0.763 |
| CGTTCCTGACAGACTGCCATTCCAGAAGTA | -1.18 |
| GCCATCTGCTGCCTCAGTTTCCCCGTCTCT | 1.65 |
| TTCCCACCCCATTTCACAGCAACCTCAGAC | 2.21 |
| TGGCCTCTGCAGACATGGACTCTGGGATCT | 3.06 |
| GGAAGGGAGGTGAGTGCTAGCATTGCTCAG | -1.06 |
| TGCATTCCCCCACCTACTGTCTCCTAATCA | 2.17 |
| AAACAAGTAGCAGTTCAAAAGTTCAAAGAT | 1.73 |
| CCAGAAAAGGCCTAAAAGGTTATCTTCCAG | -1.13 |
| GATGGGCCAGGCAGGACAGTTTTGTGTGTT | 1.11 |
